Laboratory results published in the supplement of paper PMC4967469.

Columns and labels:
Experiment in all cases: Viability of human cancer cell lines after 72 h of drug (GDSC screen)
[1] = compound: CO[C@H]1C[C@@H]2CC[C@@H](C)[C@@](O)(O2)C(=O)C(=O)N2CCCC[C@H]2C(=O)O[C@H]([C@H](C)C[C@@H]2CC[C@@H](O)[C@H](OC)C2)CC(=O)[C@H](C)/C=C(\C)[C@@H](O)[C@@H](OC)C(=O)[C@H](C)C[C@H](C)/C=C/C=C/C=C/1C [Rapamycin]; settings: top dose 0.1 µM; top dose inferred
Procedure: (§1)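 Human cancer cell lines in 384-well plates, medium with 10% serum, drug for 72 h over a 256-fold dose range (nine 2-fold or five 4-fold steps up to the top dose). Adherent lines were fixed and stained with the nucleic acid dye Syto60, suspension lines read with resazurin; signal relative to control wells, capped at 0 and 100%. One two-parameter sigmoid per drug and line, fitted in a mixed model over all curves with the slope shared within a line.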

[2] = compound: CCCC[C@@H](C=O)NC(=O)[C@H](CC(C)C)NC(=O)[C@H](CC(C)C)NC(=O)OCc1ccccc1 [Z-LLNle-CHO]; settings: top dose 2.56 µM; top dose inferred
Procedure: as §1

[3] = compound: Cn1nnc2c(C(N)=O)ncn2c1=O [Temozolomide]; settings: top dose 30 µM
Procedure: as §1

[4] = compound: Oc1ccc2ccccc2c1SSc1c(O)ccc2ccccc12 [IPA-3]; settings: top dose 32 µM; top dose inferred
Procedure: as §1

[5] = compound: CN1CCc2c(c3ccccc3n2Cc2ccc(C(=O)NO)cc2)C1 [Tubastatin A]; settings: top dose 20 µM
Procedure: as §1

[6] = compound: COc1cc2c(Oc3ccc(NC(=O)C4(C(=O)Nc5ccc(F)cc5)CC4)cc3F)ccnc2cc1OCCCN1CCOCC1 [XL-880]; settings: top dose 5.12 µM; top dose inferred
Procedure: as §1

[7] = compound: O=C(NOCC1CC1)c1ccc(F)c(F)c1Nc1ccc(I)cc1Cl [CI-1040]; settings: top dose 10 µM; top dose inferred
Procedure: as §1

[8] = compound: CN(C)C/C=C/C(=O)Nc1ccc(C(=O)Nc2cccc(Nc3nccc(-c4cccnc4)n3)c2)cc1 [ZG-10]; settings: top dose 10 µM; top dose inferred
Procedure: as §1

[9] = compound: CCC(=O)N1CCN(c2ccc(-n3c(=O)ccc4cnc5ccc(-c6cnc7ccccc7c6)cc5c43)cc2C(F)(F)F)CC1 [JW-7-52-1]; settings: top dose 1.2 µM; top dose inferred
Procedure: as §1

Cell Line | AUC [1] | IC50 [1] [µM] | AUC [2] | IC50 [2] [µM] | AUC [3] | IC50 [3] [µM] | AUC [4] | IC50 [4] [µM] | AUC [5] | IC50 [5] [µM] | AUC [6] | IC50 [6] [µM] | AUC [7] | IC50 [7] [µM] | AUC [8] | IC50 [8] [µM] | AUC [9] | IC50 [9] [µM]
H-EMC-SS (chondrosarcoma, adherent) | 0.874 | > 0.1 | 0.945 | > 2.56 | 0.979 | > 30 | 0.83 | 28.7 | 0.958 | > 20 | 0.402 | 0.159 | – | – | – | – | – | –
ETK-1 (biliary tract, adherent) | 0.102 | < 0.000391 | 0.817 | 1.68 | 0.971 | > 30 | 0.873 | > 32 | 0.913 | > 20 | 0.617 | 0.704 | 0.874 | > 10 | 0.774 | 4.47 | – | –
BC-3 (B-cell lymphoma, suspension) | 0.796 | 0.0413 | 0.879 | 2.15 | – | – | 0.976 | > 32 | 0.888 | 18.3 | 0.675 | 0.926 | – | – | – | – | 0.553 | 0.103
KP-N-RT-BM-1 (neuroblastoma, semi-adherent) | 0.898 | > 0.1 | 0.883 | > 2.56 | – | – | – | – | – | – | – | – | – | – | – | – | 0.842 | > 1.2
HCC1500 (breast, adherent) | 0.943 | > 0.1 | – | – | 0.985 | > 30 | 0.952 | > 32 | 0.953 | > 20 | 0.919 | > 5.12 | 0.939 | > 10 | – | – | – | –
LB1047-RCC (kidney, adherent) | 0.522 | 0.00724 | 0.699 | 0.626 | 0.981 | > 30 | 0.954 | > 32 | 0.944 | > 20 | 0.543 | 0.425 | 0.789 | 5.04 | 0.686 | 2.22 | – | –
CAL-148 (breast, suspension) | 0.945 | > 0.1 | 0.957 | > 2.56 | – | – | 0.983 | > 32 | 0.94 | > 20 | 0.768 | 1.77 | – | – | – | – | 0.581 | 0.122
TGBC1TKB (biliary tract, adherent) | 0.058 | < 0.000391 | 0.71 | 0.624 | 0.988 | > 30 | 0.858 | 26.1 | 0.988 | > 20 | 0.741 | 1.56 | 0.864 | 8.61 | 0.798 | 4.71 | – | –
NK-92MI (lymphoid neoplasm, suspension) | 0.877 | 0.0881 | 0.727 | 0.668 | – | – | 0.652 | 5.09 | – | – | – | – | – | – | – | – | 0.7 | 0.262
TC-71 (Ewing sarcoma, adherent) | 0.992 | > 0.1 | 0.974 | > 2.56 | 0.992 | > 30 | 0.992 | > 32 | 0.959 | > 20 | 0.629 | 0.679 | – | – | 0.586 | 1.03 | – | –
TE-15 (oesophagus, suspension) | 0.326 | 0.00191 | 0.791 | 1.32 | 0.963 | > 30 | 0.75 | 11.6 | 0.972 | > 20 | 0.733 | 1.63 | 0.756 | 3.84 | – | – | – | –
VAL (B-cell lymphoma, suspension) | 0.916 | > 0.1 | – | – | 0.984 | > 30 | 0.776 | 12.8 | 0.722 | 5.34 | 0.52 | 0.362 | 0.961 | > 10 | 0.777 | 4.04 | – | –
KALS-1 (glioma, adherent) | 0.432 | 0.0038 | 0.714 | 0.822 | 0.962 | > 30 | 0.962 | > 32 | 0.941 | > 20 | 0.703 | 1.49 | – | – | – | – | – | –
TALL-1 (T-cell lymphoblastic leukaemia, suspension) | 0.965 | > 0.1 | 0.781 | 1.01 | – | – | 0.91 | > 32 | 0.984 | > 20 | 0.799 | 2.32 | – | – | – | – | 0.673 | 0.222
KP-N-YS (neuroblastoma, adherent) | 0.982 | > 0.1 | 0.809 | 1.59 | – | – | 0.806 | 19.2 | 0.889 | > 20 | 0.665 | 0.989 | – | – | – | – | 0.799 | 0.673
ES4 (Ewing sarcoma, adherent) | 0.144 | 0.000392 | 0.777 | 1.19 | 0.968 | > 30 | 0.852 | 30.6 | 0.95 | > 20 | 0.672 | 1.04 | 0.846 | 8.96 | 0.638 | 1.6 | – | –
NTERA-2 cl.D1 (testis, adherent) | 0.213 | 0.000908 | 0.697 | 0.569 | 0.908 | > 30 | 0.899 | > 32 | 0.575 | 2 | 0.577 | 0.518 | 0.846 | 7.16 | 0.489 | 0.584 | – | –
U-87-MG (glioma, adherent) | 0.88 | > 0.1 | 0.968 | > 2.56 | – | – | 0.951 | > 32 | 0.973 | > 20 | – | – | 0.861 | > 10 | – | – | – | –
NCI-H2196 (small cell lung carcinoma, adherent) | 0.909 | > 0.1 | 0.947 | > 2.56 | – | – | 0.961 | > 32 | 0.961 | > 20 | 0.607 | 0.639 | – | – | – | – | 0.758 | 0.438

IC50 is the fitted dose that halves viability relative to control wells, and lower means more sensitive; a fit beyond the top or the lowest dose is shown as a bound at that dose. AUC sums up the same curve from the lowest dose to the 256-fold higher top dose: 1 means no effect, lower means more sensitive. For some assays here: Any top dose called inferred comes from the curve model; the source does not state it.
